In US20220389066A1, “POLYPEPTIDES” (Affibody AB, priority 2019, published 2022):

Key:
HMGB1(red) = target: T1, HMGB1(red) (Rattus norvegicus, UniProt P63159); assay: In vitro cell migration assay, mouse 3T3 fibroblasts in modified Boyden chambers; type: cell-based; conditions: 1 nM or 0.2 nM HMGB1(red), 3 h
T1 construct: purchased HMGBiotech Srl, Milano, Italy
T1 sequence (P63159 2-215): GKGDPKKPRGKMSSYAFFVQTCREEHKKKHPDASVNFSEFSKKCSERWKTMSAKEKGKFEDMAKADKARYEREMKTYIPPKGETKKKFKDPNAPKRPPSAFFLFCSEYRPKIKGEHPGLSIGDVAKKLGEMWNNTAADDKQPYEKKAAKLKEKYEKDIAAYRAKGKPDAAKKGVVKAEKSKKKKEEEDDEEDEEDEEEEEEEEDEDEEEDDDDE
Protocol: In vitro cell migration assay: Mouse 3T3 fibroblast cells were used to assess the ability of His6-tagged Z variants to inhibit migration of cells in response to HMGB1 in modified Boyden Chambers (Neuroprobe Inc.). Mouse 3T3 fibroblasts were grown in Dulbecco's Modified Eagle Medium (DMEM, Gibco) with 10% fetal bovine serum (FBS, Gibco), 1% L-glutamine and antibiotics (Lonza). Prior to use, cells were centrifuged and the pellet was resuspended in DMEM (without FBS) without further washing. Polycarbonate filters (Neuroprobe Inc.; #PFA8) with 8 μm pores were coated with human fibronectin (Roche). Serum-free DMEM (negative control), DMEM containing 1 nM HMGB1(red) (positive control), and DMEM containing 1 nM HMGB1(red) plus Z variants ZH 01 (SEQ ID NO:1) and ZH 31 (SEQ ID NO:31) at a concentration of 10 or 100 ng/ml, were placed in the lower wells. A control polypeptide, Z04726 (SEQ ID NO:54), binding an irrelevant target, was used as negative control. boxA(red) (SEQ ID NO:51), a known competitor of HMGB1, was used at 1 nM concentration as positive control for inhibition of HMGB1 induced cell migration. Fibronectin-coated filters were placed so as to separate the lower and the upper wells, and 50000 3T3 cells were placed in the upper wells. The chambers were kept at 37° C. in a 5% CO2, humidified incubator for 3 h. The cells were then fixed with 100% ethanol (Sigma) and stained 20 minutes with Giemsa Stain (Sigma). The cells on the lower side of the filter were counted with a Leica DM LS2 microscope at 400× magnification.
ZH 30 was tested in a migration assay by performing an extended titration to allow IC50 calculations with 0.2 nM HMGB1(red) and lower concentrations of Z variants (0.1 ng/ml, 0.3 ng/ml, 1 ng/ml). A control polypeptide, ZZA4014 (SEQ ID NO:49), binding an irrelevant target and cloned and produced as described in Example 4, was used as negative control in this set up.
In vitro cell migration assay: The migration assay was performed essentially as described for monomeric Z variants in Example 3. One monomeric Z-ABD polypeptide, ZA3812 (SEQ ID NO:35); five heterodimeric polypeptides, ZZA4010 (SEQ ID NO:38), ZZA4011 (SEQ ID NO:39), ZZA4012 (SEQ ID NO:40), ZZA4013 (SEQ ID NO:41) and ZAZ4015 (SEQ ID NO:42); and three homodimeric polypeptides, ZZA4053 (SEQ ID NO:43), ZZA4054 (SEQ ID NO:44) and AZ4057 (SEQ ID NO:45), were tested in a migration assay by performing an extended titration, to allow IC50 calculations with 0.2 nM HMGB1 and reducing doses of polypeptides (0.1 nM, 0.3 nM, 1 nM). ZZA4014 (SEQ ID NO:49), binding an irrelevant target, was included as a negative control.

boxA(disulfide) = target: T2, boxA(disulfide) (Homo sapiens, UniProt P09429); assay: Biacore binding analysis of mutated Z variants, immobilized boxA(disulfide); conditions: His6-tagged Z variant as analyte; HBS-EP; 1:1 model
T2 construct: purchased HMGBiotech Srl, Milano, Italy
T2 sequence (P09429 1-89): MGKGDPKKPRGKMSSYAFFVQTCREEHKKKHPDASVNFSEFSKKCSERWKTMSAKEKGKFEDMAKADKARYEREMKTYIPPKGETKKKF
Protocol: Binding analysis of mutated Z variants: A binding analysis was performed using a Biacore 2000 instrument. All alanine mutated Z variants, together with the original Z variant ZH 01, were analyzed against GST-boxA(red), HMGB1(red), boxA(disulfide) and HMGB1(disulfide). The immobilizations and Biacore analyses were performed essentially as described in Example 3. However, in these analyses, the different targets were directly coupled to separate flow cells of different CM5 chip surfaces and a flow rate of 30 μl/min was used. The ligand immobilization levels on the surfaces were 1410 RU for GST-boxA(red), 1380 RU for HMGB1(red), 540 RU for boxA(disulfide) and 2900 RU for HMGB1(disulfide). The analytes, i.e. the Z variants, were each diluted in HBS-EP buffer (or in HBS-EP+2 mM DTT for use in analysis with reduced targets GST-boxA(red) and HMGB1(red)), within a concentration range of 50 to 1350 nM and injected for 3 min, followed by dissociation in running buffer for 35 min. No regeneration buffer was used in the analyses. Instead, the dissociation time was enough for all binders to dissociate from the chip surfaces. HBS-EP was used as running buffer for targets boxA(disulfide) and HMGB1(disulfide) while HBS-EP+2 mM DTT was used for reduced targets GST-boxA(red) and HMGB1(red). The dissociation constants were calculated as in Example 3.

For “ZH01: HMGB1 A-box binding Z variant, 58 amino acid residues, from primary phage display selection (VDAKYAKEDWDAFWEIIWLPNLTDAQQRAFIYKLEDDPSQSSELLSEAKKLNDSQAPK; Engineered HMGB1 binding polypeptide)”, the “inhibition of HMGB1 induced cell migration” value (HMGB1(red)) was “inhibit HMGB1 induced cell migration” and the Kd (boxA(disulfide)) was 0.38 µM.
